Measured values as given in PubChem BioAssay AID686978 (National Center for Advancing Translational Sciences (NCATS), 2013).
About 64,000 (15%) of roughly 420,000 compounds were called active. Inconclusive results, whose numbers are uncertain, are shown with a selection of clear calls. Calls follow the shape of the dose curve; as a rule, active = well fitted inhibition curve with a large enough effect; inconclusive = small, poorly fitted or top-dose-only effect; inactive = flat fitted curve, though single readings scatter. No potency is given beside an inconclusive call; the fits are too rough.

Experiment: qHTS for Inhibitors of human tyrosyl-DNA phosphodiesterase 1 (TDP1): qHTS in cells in absence of CPT; also: nearly all actives have a fitted effect of over 55% in size
Conditions: DT40 Tdp1-/- hTDP1 cells, no CPT, ATP luminescence, 48 h; activity change, negative = growth inhibition: at 46.2 µM (top of the series) unless noted
Outline: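 Compound effects on proliferation are scored in DT40 Tdp1-/-;hTDP1 cells in the absence of CPT. ATP levels (CellTiter-Glo luminescence) are recorded after a ≥48 hr, 37 °C incubation.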
% is scaled to controls: 0 for no effect and ±100 for the full control effect; potency is read from the fitted curve at half-maximal effect; tags tell the direction and shape of the fitted curve.

SMILES	Potency	activity change, negative = growth inhibition
Cc1cccc(C)c1NC(=O)Cn1c(=O)n(CC2CCC(C(=O)NCCc3ccccc3)CC2)c(=O)c2ccccc21 (configuration not stated)	inconclusive [inhibitor, single point]	–
CCn1cc(CN2CCCC(C(=O)c3cccc(C(F)(F)F)c3)C2)cn1 (configuration not stated)	inconclusive [inhibitor, single point]	–
C=CCN1CCc2cccc3c2[C@H]1Cc1ccc(O)c(O)c1-3	active: 18.4 µM	–
C=CCCC1(CC(C)C)C(=O)NC(=S)NC1=O	–	inactive: 10.6%
O=C(COc1ccccc1/C=C1/NC(=O)NC1=O)Nc1ccccc1	inconclusive [inhibitor, single point]	–
CC(C)CCNC(=O)Cn1c(=O)oc2cc(S(=O)(=O)N3CCc4ccccc43)ccc21	inconclusive [inhibitor, partial curve, poor fit]	–
C[C@H]1CN([C@@H](C)CO)C(=O)CCCn2nncc2CO[C@H]1CN(C)C(=O)Oc1ccccc1	–	inconclusive: -21% [inhibitor]
Cc1ccc(C)c(OCc2cc(C(=O)N3C[C@H]4C[C@@H](C3)c3cccc(=O)n3C4)no2)c1	–	inactive: 6.58%
COC(=O)c1c(OCc2cccnc2)cc(=O)n2c1CCN(Cc1cc3c(cc1Cl)OCO3)CC2	active: 18.4 µM	–
Cc1nc2ccccc2c(=O)n1-c1ccccc1C(F)(F)F	inconclusive [inhibitor, partial curve]	–
CCN(CC)C(=O)C(C(=O)c1cccc([N+](=O)[O-])c1)n1cc(Cl)ccc1=O (configuration not stated)	inconclusive [inhibitor, single point]	–
CC(C)CCNC(=O)c1c(N)n(CC2CCCO2)c2nc3ccccc3nc12 (configuration not stated)	active: 29.1 µM	–
COc1ccc(-n2c(O)c(C(C)=NCCCn3ccnc3)c(=O)[nH]c2=O)cc1	–	inactive: -23.5%
C/C(=N\N1CCCCCC1)c1c(O)n(-c2ccccc2C)c(=O)[nH]c1=O	active: 0.13 µM	–
COc1cccc(C(=O)CCN[C@@H](C)[C@H](O)c2ccccc2)c1	active: 23.7 µM	–
COc1cc(CN=Cc2c(O)n(C(C)(C)C)c(=O)[nH]c2=O)cc(OC)c1	inconclusive [inhibitor, single point]	–
CCn1c(=O)n(CC)c2cc([N+](=O)[O-])c(N3CCNCC3)cc21	–	inactive: 1.06%
CN(C)C1(CNC(=O)Nc2ccc(Cl)c(Cl)c2)CCCCC1	inconclusive [inhibitor, single point]	–
O=S(=O)(c1ccc(Cl)cc1)N1CCN(C2CCN(Cc3ccccc3)CC2)CC1	inconclusive [inhibitor, single point]	–
CCS(=O)(=O)Nc1cccc(C(=C2CCCCC2)c2cnc[nH]2)c1	active: 20.6 µM	–
CC1CN(c2ccccc2)NC1=O (configuration not stated)	inconclusive [inhibitor, single point]	–
Cc1ccc(N=Nc2c(O)[nH]c(=O)[nH]c2=O)c([N+](=O)[O-])c1	–	inactive: -17.8%
CCNc1nc(NC(C)(C)C)nc(SC)n1	–	inactive: -13.4%
Cc1nc2cc(C(=O)N3CCC4(CC3)OCCO4)ccc2n1-c1cccc(F)c1	–	inconclusive: -33.9% [inhibitor]

SMILES	Potency	activity change, negative = growth inhibition
COC(=O)C1=C(c2ccc(OCc3ccccc3)cc2)C[C@@H]2CC[C@H]1N2C(=O)NCc1ccc(OC)c(OC)c1	active: 23.1 µM	–
CCOC(=O)N1CCN(CC(O)COCCC23CC4CC(CC(C4)C2)C3)CC1 (configuration not stated)	active: 29.1 µM	–
CC(=O)c1ccc2c(c1)N(CCCN(C)C)c1ccccc1S2	active: 8.05 µM	–
CC[C@H](OC(C)=O)C(C[C@H](C)N(C)C)(c1ccccc1)c1ccccc1	active: 23.1 µM	–
CCC1(c2ccccc2)C(=O)NC(=O)N(C(=O)c2ccccc2)C1=O (configuration not stated)	–	inactive: -21.2%
COc1ccccc1CN1CCCC(C(=O)c2ccccc2OC)C1 (configuration not stated)	inconclusive [inhibitor, single point]	–
O=c1[nH]c2ccccc2n1C1CCN(C(c2ccccc2)c2nnnn2-c2ccc3c(c2)OCCO3)CC1 (configuration not stated)	active: 18.4 µM	–
COc1cc(C)c(-c2nc(CN3C[C@@H]4C[C@@H](C3)c3cccc(=O)n3C4)c(C)o2)cc1C	inconclusive [inhibitor, single point]	–
COC(=O)c1ccc(S(=O)(=O)N2CCCN(Cc3ccccc3)CC2)n1C	inconclusive [inhibitor, single point]	–
C[C@H]1C/C=C/[C@H]2[C@H](O)[C@H](C)[C@@](C)(O)[C@H]3[C@H](Cc4ccccc4)NC(=O)[C@]32[C@H](O)/C=C/[C@](C)(O)C1	active: 8.2 µM	–
COc1cccc(-c2nnc3n(Cc4ccccc4Cl)c(=O)c4ccccc4n23)c1O	inconclusive [inhibitor, single point]	–
Cc1c(NS(=O)(=O)c2ccccc2)ccc([N+](=O)[O-])c1Cl	active: 16.4 µM	–
CCCCOC(=O)c1ccccc1C(=O)OCc1ccccc1	inactive	–
Nc1c(C(=O)NCCCc2ccccc2)c2nc3ccccc3nc2n1Cc1cccs1	inconclusive [inhibitor, single point]	–
Cc1ccc([C@H]2C[C@@H](O)[C@H](n3cc(COC(=O)c4ccccc4)nn3)CN2C(=O)C2CCCCC2)cc1	inconclusive [inhibitor, single point]	–
CC(C)NC(=O)Cn1cc(C(=O)c2ccccc2)c2ccccc21	–	inactive: -33.1%
COC(=O)C1=C(c2ccc(S(C)(=O)=O)cc2)C[C@@H]2CC[C@H]1N2C(=O)NCc1ccc(F)cc1	–	inactive: -13.7%
O=c1[nH]c(=S)n(C2CC2)c(O)c1/C=N/N1CCOCC1	–	inactive: -2.56%
Cc1cccc(N(C)C(=S)Oc2ccc3c(c2)CCC3)c1	inconclusive [inhibitor, single point]	–
N#Cc1ccc(CN2CC3(CCNCC3)C2)cc1	inconclusive [inhibitor, full curve, poor fit]	–
c1cc(OCCN2CC2)ccn1	active: 7.31 µM	–
COc1ccc(Cn2c(N)c(C(=O)NCc3ccco3)c3nc4ccccc4nc32)cc1	inconclusive [inhibitor, partial curve, poor fit]	–
O=C(Nc1cccc(F)c1)N1CCC2(CC1)CCN(C(=O)Oc1ccccc1)CC2	active: 23.1 µM	–
C=CCn1c(O)c(C(C)=NCc2ccc3c(c2)OCO3)c(=O)[nH]c1=O	inconclusive [inhibitor, single point]	–

SMILES	Potency	activity change, negative = growth inhibition
CC(C)N1C(=O)CC2(CC[N+](C)(CCOC(=O)C(O)(c3ccccc3)c3ccccc3)CC2)C1=O (configuration not stated)	–	inactive: -15%
Cc1cccc(N(CC(=O)NCCSc2ccc(Cl)cc2)S(=O)(=O)c2ccccc2)c1C	inconclusive [inhibitor, single point]	–
O=C1CC(=O)N(c2ccc(Cl)cc2Cl)C(=O)N1	–	inactive: -7.83%
CCN(CC)CCCN=C(C)c1c(O)n(-c2ccc(C)cc2)c(=O)[nH]c1=O	–	inactive: 0.289%
COc1ccc(C(C)=O)cc1CN1CC=C(c2ccccc2)CC1	inconclusive [inhibitor, single point]	–
COCCO[C@H]1CCC2C3CC=C4C[C@@H](O)CC[C@]4(C)C3CC[C@@]21C (some centres not stated)	inconclusive [inhibitor, partial curve]	–
COC(=O)N(c1ccccc1)P(=O)(Oc1ccccc1)Oc1ccccc1	inconclusive [inhibitor, single point]	–
COc1ccc(/C=C2/C(=O)NC(=O)N(c3ccccc3)C2=O)cc1CN1C(=O)c2ccccc2C1=O	inconclusive [inhibitor, single point]	–
Cc1c(CC(=O)N2C[C@H]3C[C@@H](C2)c2cccc(=O)n2C3)c(=O)oc2cc(O)c(Cl)cc12	–	inactive: 7.08%
Cc1ccc(S(=O)(=O)c2nc(-c3ccccc3Cl)oc2N(C)C2CCN(C)CC2)cc1	inconclusive [inhibitor, single point]	–
CCN(CC)c1ccc(/C=C2\C(=O)NC(=O)N(Cc3ccco3)C2=O)cc1	–	inactive: -27.6%
CC(C)CCCn1c(O)c(/C=C2/C=CC=N2)c(=O)[nH]c1=O	active: 5.17 µM	–
O=C1NC(=S)NC(=O)C1=Cc1cccc2cc3ccccc3cc12	active: 2.59 µM	–
CCN(CC)CCNC(=O)c1c(C)[nH]c(/C=C2\C(=O)Nc3ccc(F)cc32)c1C	active: 3.76 µM	–
Clc1ccc(C(c2ccccc2)c2ncc[nH]2)cc1 (configuration not stated)	–	inconclusive: -12% [inhibitor]
COC(=O)C1=C(c2cccc(OCc3ccccc3)c2)C[C@@H]2CC[C@H]1N2C(=O)NCc1cccc(OC)c1	active: 14.6 µM	–
COc1ccccc1CN1CCCC2(CCN(C(=O)Oc3ccccc3)CC2)C1	–	inactive: -18.2%
CC/C(=N\Nc1ccccc1)c1c(O)n(C)c(=O)n(C)c1=O	inconclusive [inhibitor, single point]	–
CCOC(=O)[C@]12Cc3cc(Cl)ccc3[C@H]1N(Cc1ccccc1)C(=O)c1cc(OC)ccc12	active: 5.8 µM	–
O=C(O)CNCP(=O)(O)O	–	inactive: 2.86%
O=C(Nc1ccc(OC(F)(F)F)cc1)Oc1ccccc1N1CCOCC1	inconclusive [inhibitor, single point]	–
CC1CC2CC(=O)CCC2(C)C2CCC3(C)C(O)CCC3C12 (configuration not stated)	inconclusive [inhibitor, single point]	–
C[C@H]1CNC(=O)c2c(C(=O)N3CCN(C(=O)OC(C)(C)C)CC3)ncn21	inconclusive [inhibitor, single point]	–
NC1(c2ccccc2)CCCCC1	inconclusive [inhibitor, single point]	–
